In all, about 410,000 compounds went through this assay and about 6,400 (1.6%) were called active. The shares of active, inactive and inconclusive entries below differ from those in the screen. The call rests on the fitted dose curve; in most records, active means well fitted inhibition curve with a large enough effect; inconclusive means small, poorly fitted or top-dose-only effect; inactive means no such curve, though single readings can be large or run the other way. A potency beside an inconclusive call is a rough fit, not a confirmed value.
What follows are compounds tested against Glucagon-like peptide 1 receptor (Homo sapiens) (UniProt P43220) (assay: qHTS of GLP-1 Receptor Inverse Agonists (Inhibition Mode)). Details: HEK293 GLP-1R CRE-luciferase, luminescence, 24 h, GLP-1R form is constitutively active; series mostly up to 38.3 µM.
Sequence of UniProt P43220 (P43220 whole entry, looked up): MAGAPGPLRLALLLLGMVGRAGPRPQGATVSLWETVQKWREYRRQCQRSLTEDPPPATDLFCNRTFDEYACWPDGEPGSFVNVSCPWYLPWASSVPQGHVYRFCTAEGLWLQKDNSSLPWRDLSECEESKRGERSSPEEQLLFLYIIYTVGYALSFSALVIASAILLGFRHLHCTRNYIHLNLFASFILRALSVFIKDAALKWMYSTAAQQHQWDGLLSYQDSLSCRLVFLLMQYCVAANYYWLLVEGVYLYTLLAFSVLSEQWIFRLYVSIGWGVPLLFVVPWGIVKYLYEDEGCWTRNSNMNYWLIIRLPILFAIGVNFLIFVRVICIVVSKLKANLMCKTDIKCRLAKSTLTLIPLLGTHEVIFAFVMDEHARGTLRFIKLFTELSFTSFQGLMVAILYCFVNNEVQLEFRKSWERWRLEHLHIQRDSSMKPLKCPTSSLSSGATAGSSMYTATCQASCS
Procedure, shortened: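 Inverse agonists were sought by their lowering of basal cAMP reporter luciferase output in HEK293 cells stably carrying constitutively active human GLP-1R, after 24 h compound treatment.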
Further: nearly all actives have a fitted effect of over 55% in size.
Potency means the concentration at half of the fitted maximal effect; tags describe the fitted curve by direction and shape.

Potency, inactive:
Cc1cc(C)cc(NC(=O)Cn2c(=O)n(Cc3ccc4c(c3)OCO4)c(=O)c3oc4ccccc4c32)c1
CC(C)CNC(=O)C1(C)CCCN1C(=O)c1cccnc1 (stereo not drawn)
COc1ccc(-n2c(SCC(=O)Nc3ccccc3)nc(O)cc2=O)cc1
Cc1cc(Nc2ccccc2O)c2ccccc2n1
COc1ccc(-n2nc(C(=O)Nc3cccc(C)n3)c3c4ccccc4n(C)c3c2=O)cc1

Potency, inconclusive:
Cc1ccc(C)c(OCCCC(=O)Nc2ccccc2C(N)=O)c1 14.1 µM [inhibitor, single point]
Clc1ccc(CN2C3=NCCCN3c3ccccc32)cc1 10 µM [inhibitor, partial curve, poor fit]
CC(C)CNc1ncnc2c1ncn2[C@H]1CN(Cc2ccc(Cl)cc2)C[C@@H](CO)O1 31.6 µM [inhibitor, single point]
CC(CNC(=O)c1ccc(-c2ccccc2)cc1)CN(C)C (stereo not drawn) 28.2 µM [inhibitor, single point]
COC(=O)c1ccc(NC(=S)N2CCN(Cc3ccccc3OC)CC2)cc1 12.6 µM [inhibitor, single point]
Cc1ccc2c(c1)-c1ncc(C(=O)c3cc(Br)ccc3O)cc1CO2 28.2 µM [inhibitor, single point]
CC1CCN(C(=S)NC2CC3CCC2C3)CC1 (stereo not drawn) 31.6 µM [inhibitor, single point]
CC(C)CN(CC(C)C)CC(O)CN(c1ccccc1)S(=O)(=O)c1ccccc1[N+](=O)[O-] (stereo not drawn) 14.1 µM [inhibitor, partial curve, poor fit]
CC(=O)Nc1cccc(-c2ccnc3c2CC(C(=O)NCc2cccc(Cl)c2)O3)c1 (stereo not drawn) 3.16 µM [inhibitor, full curve, poor fit]
CC1(C)CC(=O)C(C=Nc2ccccc2Sc2ccccc2)=C(O)C1 11.2 µM [inhibitor, partial curve, poor fit]
COc1ccc(C(=O)Nc2nc(CC(=O)NCCc3cccc(OC)c3)cs2)cc1 8.91 µM [inhibitor, partial curve, poor fit]
COc1ccc(-c2c([C@H]3[C@H]4C=CC[C@@H](C)[C@@H]4C(=O)N3Cc3ccccc3)ccc3ccccc23)cc1OC 7.94 µM [inhibitor, partial curve, poor fit]
O=C(CCNC(=O)c1ccc([N+](=O)[O-])cc1)Nc1ccccc1N1CCCCC1 11.2 µM [inhibitor, single point]

— PubChem BioAssay AID624417 (National Center for Advancing Translational Sciences (NCATS), 2012)
